Measurements: the supplement of paper PMC3334620
The full ranking holds about 33,000 sequences; the median of “E-score (-0.5 to 0.5)” is about -0.016, and the highest 2% start at about 0.32. The list shows a part of the results.

target: T1, Stp1 (UniProt B3LFK1); test: PBM E-score (8-mer binding enrichment) (E-score (-0.5 to 0.5)); higher = stronger / more preferred TF binding; most listed sequences are background and not binding sites; conditions: protein concentration: 200 nM; construct: GST-full length
T1 sequence: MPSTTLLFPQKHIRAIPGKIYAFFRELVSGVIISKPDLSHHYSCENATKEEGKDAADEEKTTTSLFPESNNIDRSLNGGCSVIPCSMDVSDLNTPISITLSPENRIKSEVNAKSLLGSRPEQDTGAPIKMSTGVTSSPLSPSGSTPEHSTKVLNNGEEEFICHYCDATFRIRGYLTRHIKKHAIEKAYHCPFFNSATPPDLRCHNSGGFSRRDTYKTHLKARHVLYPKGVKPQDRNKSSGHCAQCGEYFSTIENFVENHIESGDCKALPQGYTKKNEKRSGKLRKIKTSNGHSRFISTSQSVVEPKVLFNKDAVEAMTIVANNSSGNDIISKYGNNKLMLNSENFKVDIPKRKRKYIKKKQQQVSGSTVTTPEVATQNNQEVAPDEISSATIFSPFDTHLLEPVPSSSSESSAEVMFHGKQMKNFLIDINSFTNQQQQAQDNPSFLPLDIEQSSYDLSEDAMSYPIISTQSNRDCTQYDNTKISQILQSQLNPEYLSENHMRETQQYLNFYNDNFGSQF
Method in brief: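 Using PURExpress in vitro transcription/translation, GST-tagged yeast transcription factors were made in full-length or DNA-binding-domain form. These were applied at about 100-200 nM to double-stranded universal all-10-mer Agilent arrays, and bound protein was detected with fluorescent anti-GST. Scans were normalised with masliner before the Universal PBM Analysis Suite assigned E-scores to ungapped eight-base words pooled with their reverse complements.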

| Sequence | PBM E-score |
| --- | --- |
| GCCCCGCC | 0.207 |
| CCTTCATA | -0.00266 |
| AGTAAACA | 0.111 |
| CAAGAAGC | 0.199 |
| AGGCCTCA | -0.143 |
| GTCGTCTA | -0.0445 |
| GCAACTAA | 0.263 |
| CGTTTCGC | 0.0321 |
| TCCCTCGA | -0.196 |
| CGAACGCG | 0.103 |
| GGAGGGAC | -0.227 |
| CAGGACTG | -0.107 |
| ATCGCCCC | -0.0316 |
| CTTACTAC | -0.0212 |
| CCACTCAG | -0.108 |
| CTTACAGC | 0.0767 |
| CAACGGAG | -0.0687 |
| CCCCGGAC | -0.161 |
| CACCCGGA | -0.0499 |
| CCGACGTA | -0.12 |
| CCTCCTAC | -0.131 |
| GTACTAAA | 0.0769 |
| GTCTCCAA | -0.0244 |
| CGATAGAC | 0.00428 |
| ACTAGTGC | 0.173 |

| Sequence | PBM E-score |
| --- | --- |
| ACACTAAC | 0.0905 |
| CACACCCA | -0.101 |
| ATTTTTGG | 0.117 |
| AGCAATCA | -0.0553 |
| AGCCCGCC | -0.0384 |
| GAACGCTC | -0.17 |
| CTACGTTC | -0.141 |
| CTCTGTAC | 0.00392 |
| ATCAGAAT | 0.0562 |
| ACGCACCC | -0.306 |
| CTTCATGA | 0.138 |
| ATATGACC | -0.104 |
| CAGCATGG | -0.0284 |
| CAGCGAGC | -0.0649 |
| ATAGGAAT | 0.0422 |
| AGGCAGGG | -0.123 |
| AGGAGAGG | -0.249 |
| GAAGCCCC | -0.232 |
| GAAATACC | 0.0295 |
| GATCCCAA | -0.0973 |
| CGACCTGA | -0.116 |
| AAATTCTC | -0.158 |
| GCATGGGA | -0.227 |
| AAATACCT | 0.00333 |
| CCTATTGC | 0.013 |

| Sequence | PBM E-score |
| --- | --- |
| AATCAGCG | 0.012 |
| AACGCCGT | 0.482 |
| GCTGTATA | 0.00031 |
| ACACTGGA | -0.0529 |
| ACCCTCGG | -0.327 |
| CATACTGA | 0.169 |
| CATTTGTC | -0.0111 |
| GTAGAGGA | -0.27 |
| GCCAGAGA | -0.14 |
| CATGAGGG | -0.212 |
| ACTAACTG | -0.00385 |
| GACATACA | 0.125 |
| AACGTCTA | 0.0398 |
| CCATAACG | 0.0339 |
| GAGCCTGA | -0.0639 |
| GGAAAATA | 0.167 |
| AAGGAGGA | -0.179 |
| GAAGGTTA | 0.00224 |
| CCCTTGAG | -0.2 |
| GCCACTGA | -0.0755 |
| ATAACTTC | -0.0104 |
| CGGAACCC | -0.0613 |
| GAGCTTGA | -0.168 |
| AGACTAAG | -0.106 |
| ATTTCACG | 0.0123 |

| Sequence | PBM E-score |
| --- | --- |
| AGAGAAGG | -0.122 |
| ATTGAATC | 0.0935 |
| GCCTGGAC | -0.223 |
| AAGGTTTC | -0.0962 |
| ACTTATCC | -0.0589 |
| AGTTGAGG | -0.0375 |
| ACCTGCTA | -0.158 |
| TCGTGGCA | 0.102 |
| CGACTTCC | -0.248 |
| GCGCTTAA | 0.0391 |
| CGGCAGCA | 0.333 |
| CGCTAGAA | -0.0475 |
| ATGGCGGG | -0.132 |
| AAATACTC | 0.0143 |
| GCGTCTAA | 0.0127 |
| AGGTCGCG | -0.058 |
| ACCTACCA | -0.189 |
| CGAGAGGC | 0.0572 |
| CGCAGCTC | -0.122 |
| ATGGGCGA | -0.153 |
| ACTATGAA | -0.0377 |
| AGACAAGG | -0.00804 |
| ATGGCAGG | 0.012 |
| GTCCGCAA | 0.0743 |
| GGAGTCAC | -0.236 |

| Sequence | PBM E-score |
| --- | --- |
| GCCTTTCA | 0.194 |
| GACAGACC | -0.14 |
| CAATTCCG | 0.107 |
| AGATGCAA | -0.0126 |
| AACAGCAG | -0.0119 |
| AACAGACA | 0.0548 |
| AATGCAGG | -0.0721 |
| ACATAAGA | 0.145 |
| ATTGTCGA | -0.0508 |
| CACATGTC | -0.114 |
| ACACCTTA | 0.0262 |
| ATGCGCTC | -0.0506 |
| TGATTCCA | -0.0134 |
| ATCACGAC | -0.218 |
| AACAATAG | -0.168 |
| CTGATCAG | 0.0499 |
| CGTATCAA | 0.226 |
| GCACTTGA | 0.18 |
| AGATTCTC | 0.00184 |
| TAGCCCGA | -0.00407 |
| CCGATGAA | -0.0605 |
| CTTTTTTC | -0.0574 |
| GCCGGCGC | 0.346 |
| CTGGTTCC | -0.045 |
| AGTGTACC | -0.316 |

| Sequence | PBM E-score |
| --- | --- |
| AGGTTGGC | -0.228 |
| GTGGCACA | 0.125 |
| ACTACGAT | 0.0409 |
| AGTGCGCA | 0.0101 |
| CAGGAGCC | -0.0638 |
| ATGCGCCG | 0.413 |
| ACCAGAGT | -0.125 |
| GCGCCAAC | 0.259 |
| ATTAAAAC | 0.261 |
| CGCGGGAG | -0.121 |
| TCTTCTCA | 0.0549 |
| TACTGCCA | -0.0491 |
| CCCGAAGC | -0.239 |
| GACCCAGA | -0.0311 |
| CACTTATG | 0.0482 |
| GATCCTGC | -0.0764 |
| AGAGTCCT | -0.269 |
| CCACATGC | 0.132 |
| GAGTTCAA | -0.0434 |
| ATTACACA | 0.215 |
| ATTGGTGA | -0.0777 |
| CGTGGTGC | -0.139 |
| GGATGAGA | -0.157 |
| AAGATCCC | -0.148 |
| AGGCGATC | 0.128 |

| Sequence | PBM E-score |
| --- | --- |
| ACCGCGAT | 0.0376 |
| GTCATTTA | -0.0447 |
| CATGGTGC | 0.105 |
| AGGAATCG | 0.0328 |
| CCGAGCGG | 0.0338 |
| AGCCTCAG | -0.0107 |
| CTGAATCC | 0.0478 |
| GGGCGGCA | 0.356 |
| CGGTTTGC | -0.106 |
| AAAGATTG | -0.142 |
| ACTTAGGG | -0.194 |
| ATTCTGAA | 0.123 |
| CGGTTTGA | 0.00878 |
| ATCACACG | 0.291 |
| AGGGTTTG | -0.117 |
| CACCGCGC | 0.166 |
| AAGTTTAG | 0.0383 |
| ACACAGCA | 0.0745 |
| TAAATAGA | -0.0606 |
| AGCGACTG | -0.0206 |
| AAGACTGC | -0.127 |
| GCGGCCGA | 0.139 |
